The source of these data is PMC11110689.

Results are given in words; binding and its absence hold for the method and conditions named. For some of these results: In cells and extracts the contact can be indirect. Some results given as binding are weak or reduced against the parent protein; the word gives no strength. For some of these results: Tags and fused reporters may be left off the sequences shown.

The target in one test is FIH H199A (UniProt Q9NWT6). The test can be described thus: immunoblot of a denaturation-resistant (SDS-PAGE) complex; HEK293 cells transiently co-transfected, normoxia; complex seen at the summed molecular weight; also with FG-4592 (0.1 mM), DM-NOFD (1 mM) or MG132 (10 μM), and with lysates treated with DTT or β-mercaptoethanol, 5 min at 95 °C; shows only complexes that resist denaturation. On the technique in general: Immunoblotting shows a protein as a band on a membrane.

For another test, the target named is T1, FIH L340R (UniProt Q9NWT6).
T1 sequence: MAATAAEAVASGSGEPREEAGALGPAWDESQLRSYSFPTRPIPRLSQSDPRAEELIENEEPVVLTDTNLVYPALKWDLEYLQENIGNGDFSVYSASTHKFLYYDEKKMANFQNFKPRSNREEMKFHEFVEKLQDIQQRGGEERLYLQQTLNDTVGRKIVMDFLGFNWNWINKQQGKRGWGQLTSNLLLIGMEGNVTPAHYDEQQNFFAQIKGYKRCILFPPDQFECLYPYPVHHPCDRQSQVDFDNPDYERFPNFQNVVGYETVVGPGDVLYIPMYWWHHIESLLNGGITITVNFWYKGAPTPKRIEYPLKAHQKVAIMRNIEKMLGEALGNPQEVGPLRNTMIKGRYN
The test is described as above.

Test [1] concerns the target FIH-IκBβ oxomer (FIH-V5 with IκBβ-FLAG) (UniProt Q9NWT6). Nature of the test: co-IP; IκBβ-FLAG expressed in HEK293 cells alone or with FIH-V5; immunoprecipitated with anti-V5 or anti-FLAG antibodies, immunoblot.
The target in test [2] is T2, NF-κB inhibitor β (IκBβ), FLAG-tagged (IκBβ-FLAG) (human) (UniProt Q15653).
T2 sequence: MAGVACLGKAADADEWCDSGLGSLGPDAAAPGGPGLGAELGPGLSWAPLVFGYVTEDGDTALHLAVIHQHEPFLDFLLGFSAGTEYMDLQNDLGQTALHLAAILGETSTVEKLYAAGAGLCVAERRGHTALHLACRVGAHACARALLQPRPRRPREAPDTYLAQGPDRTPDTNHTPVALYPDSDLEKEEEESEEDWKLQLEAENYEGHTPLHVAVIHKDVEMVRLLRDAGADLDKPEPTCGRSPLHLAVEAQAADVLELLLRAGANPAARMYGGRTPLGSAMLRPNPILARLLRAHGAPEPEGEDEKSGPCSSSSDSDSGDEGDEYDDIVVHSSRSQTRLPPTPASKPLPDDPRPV
The test is described as above.

B1: NF-κB inhibitor β (IκBβ), FLAG-tagged (IκBβ-FLAG) (protein, UniProt Q15653 1-356)
chain: T2 sequence
For the molecule B1, the binding entry with FIH H199A and with FIH L340R was “no binding” in each case.

B2: NF-κB subunit c-Rel (protein, UniProt Q04864 1-619)
chain: MASGAYNPYIEIIEQPRQRGMRFRYKCEGRSAGSIPGEHSTDNNRTYPSIQIMNYYGKGKVRITLVTKNDPYKPHPHDLVGKDCRDGYYEAEFGQERRPLFFQNLGIRCVKKKEVKEAIITRIKAGINPFNVPEKQLNDIEDCDLNVVRLCFQVFLPDEHGNLTTALPPVVSNPIYDNRAPNTAELRICRVNKNCGSVRGGDEIFLLCDKVQKDDIEVRFVLNDWEAKGIFSQADVHRQVAIVFKTPPYCKAITEPVTVKMQLRRPSDQEVSESMDFRYLPDEKDTYGNKAKKQKTTLLFQKLCQDHVETGFRHVDQDGLELLTSGDPPTLASQSAGITVNFPERPRPGLLGSIGEGRYFKKEPNLFSHDAVVREMPTGVSSQAESYYPSPGPISSGLSHHASMAPLPSSSWSSVAHPTPRSGNTNPLSSFSTRTLPSNSQGIPPFLRIPVGNDLNASNACIYNNADDIVGMEASSMPSADLYGISDPNMLSNCSVNMMTTSSDSMGETDNPRLLSMNLENPSCNSVLDPRDLRQLHQMSSSSMSAGANSNTTVFVSQSDAFEGSDFSCADNSMINESGPSNSTNPNSHGFVQDSQYSGIGSMQNEQLSDSFPYEFFQV
With B2, the results for the binding entry in test [1] and in test [2] were “no binding” and “binds”, respectively.
